# Laboratory results from paper PMC9911399, “Two distinct binding modes provide the RNA-binding protein RbFox with extraordinary sequence specificity”.
# Residue numbers refer to the chain shown, from its start. The list shows a part of the results.
# B1: AACAUGG (DNA:RNA)
# RNA: GGGAGACCGGAAUUCAGAUUGUCCAACAUGGUUAAAUCCCGUCGUAGCCACCA
# DNA 1: CAATCTGAATTCCGGTCTCCC
# DNA 2: TGGTGGCTACGACGGGATT
# B2: CGGCCAC (DNA:RNA)
# RNA: GGGAGACCGGAAUUCAGAUUGUCCCGGCCACUUAAAUCCCGUCGUAGCCACCA
# DNA 1: CAATCTGAATTCCGGTCTCCC
# DNA 2: TGGTGGCTACGACGGGATT
# B3: CAACAUG (DNA:RNA)
# RNA: B1 RNA with A25C, C27A, A28C, U29A, G30U
# DNA 1: CAATCTGAATTCCGGTCTCCC
# DNA 2: TGGTGGCTACGACGGGATT
# B4: GUCUGCA (DNA:RNA)
# RNA: B1 RNA with A25G, A26U, A28U, U29G, G30C, G31A
# DNA 1: CAATCTGAATTCCGGTCTCCC
# DNA 2: TGGTGGCTACGACGGGATT
# B5: GUUGACC (DNA:RNA)
# RNA: B2 RNA with C25G, G26U, G27U, C28G, C29A, A30C
# DNA 1: CAATCTGAATTCCGGTCTCCC
# DNA 2: TGGTGGCTACGACGGGATT
# B6: CUUGUAG (DNA:RNA)
# RNA: B1 RNA with A25C, A26U, C27U, A28G, G30A
# DNA 1: CAATCTGAATTCCGGTCTCCC
# DNA 2: TGGTGGCTACGACGGGATT
# B7: CCUACGA (DNA:RNA)
# RNA: B1 RNA with A25C, A26C, C27U, U29C, G31A
# DNA 1: CAATCTGAATTCCGGTCTCCC
# DNA 2: TGGTGGCTACGACGGGATT
# B8: GGUCGCG (DNA:RNA)
# RNA: B2 RNA with C25G, G27U, C29G, A30C, C31G
# DNA 1: CAATCTGAATTCCGGTCTCCC
# DNA 2: TGGTGGCTACGACGGGATT
# B9: GAGCGGC (DNA:RNA)
# RNA: B2 RNA with C25G, G26A, C29G, A30G
# DNA 1: CAATCTGAATTCCGGTCTCCC
# DNA 2: TGGTGGCTACGACGGGATT
# B10: CGCUUAC (DNA:RNA)
# RNA: B2 RNA with G27C, C28U, C29U
# DNA 1: CAATCTGAATTCCGGTCTCCC
# DNA 2: TGGTGGCTACGACGGGATT
# B11: AUCAUCU (DNA:RNA)
# RNA: B1 RNA with A26U, G30C, G31U
# DNA 1: CAATCTGAATTCCGGTCTCCC
# DNA 2: TGGTGGCTACGACGGGATT
# B12: UAUUACA (DNA:RNA)
# RNA: B1 RNA with A25U, C27U, A28U, U29A, G30C, G31A
# DNA 1: CAATCTGAATTCCGGTCTCCC
# DNA 2: TGGTGGCTACGACGGGATT
# B13: GCUGGUU (DNA:RNA)
# RNA: GGGAGACCGGAAUUCAGAUUGUCCGCUGGUUUUAAAUCCCGUCGUAGCCACCA
# DNA 1: CAATCTGAATTCCGGTCTCCC
# DNA 2: TGGTGGCTACGACGGGATT
# B14: GUUCAGC (DNA:RNA)
# RNA: B2 RNA with C25G, G26U, G27U, C29A, A30G
# DNA 1: CAATCTGAATTCCGGTCTCCC
# DNA 2: TGGTGGCTACGACGGGATT
# B15: UCGUAUG (DNA:RNA)
# RNA: B13 RNA with G25U, U27G, G28U, G29A, U31G
# DNA 1: CAATCTGAATTCCGGTCTCCC
# DNA 2: TGGTGGCTACGACGGGATT
# B16: CUAGUUG (DNA:RNA)
# RNA: B1 RNA with A25C, A26U, C27A, A28G, G30U
# DNA 1: CAATCTGAATTCCGGTCTCCC
# DNA 2: TGGTGGCTACGACGGGATT
# B17: GAAAGUC (DNA:RNA)
# RNA: B13 RNA with C26A, U27A, G28A, U31C
# DNA 1: CAATCTGAATTCCGGTCTCCC
# DNA 2: TGGTGGCTACGACGGGATT
# B18: CUGCGGC (DNA:RNA)
# RNA: B2 RNA with G26U, C29G, A30G
# DNA 1: CAATCTGAATTCCGGTCTCCC
# DNA 2: TGGTGGCTACGACGGGATT
# B19: ACUAGUU (DNA:RNA)
# RNA: B13 RNA with G25A, G28A
# DNA 1: CAATCTGAATTCCGGTCTCCC
# DNA 2: TGGTGGCTACGACGGGATT
# B20: CCGCCGU (DNA:RNA)
# RNA: B2 RNA with G26C, A30G, C31U
# DNA 1: CAATCTGAATTCCGGTCTCCC
# DNA 2: TGGTGGCTACGACGGGATT
# B21: UUACAGU (DNA:RNA)
# RNA: B1 RNA with A25U, A26U, C27A, A28C, U29A, G31U
# DNA 1: CAATCTGAATTCCGGTCTCCC
# DNA 2: TGGTGGCTACGACGGGATT
# B22: AGCGCAG (DNA:RNA)
# RNA: B1 RNA with A26G, A28G, U29C, G30A
# DNA 1: CAATCTGAATTCCGGTCTCCC
# DNA 2: TGGTGGCTACGACGGGATT
# B23: CGCGGAC (DNA:RNA)
# RNA: B2 RNA with G27C, C28G, C29G
# DNA 1: CAATCTGAATTCCGGTCTCCC
# DNA 2: TGGTGGCTACGACGGGATT
# B24: GUAUCCC (DNA:RNA)
# RNA: B2 RNA with C25G, G26U, G27A, C28U, A30C
# DNA 1: CAATCTGAATTCCGGTCTCCC
# DNA 2: TGGTGGCTACGACGGGATT
# B25: CACCACG (DNA:RNA)
# RNA: B1 RNA with A25C, A28C, U29A, G30C
# DNA 1: CAATCTGAATTCCGGTCTCCC
# DNA 2: TGGTGGCTACGACGGGATT
# B26: ACUGCGG (DNA:RNA)
# RNA: B1 RNA with A26C, C27U, A28G, U29C
# DNA 1: CAATCTGAATTCCGGTCTCCC
# DNA 2: TGGTGGCTACGACGGGATT
# B27: GCGACCG (DNA:RNA)
# RNA: B1 RNA with A25G, A26C, C27G, U29C, G30C
# DNA 1: CAATCTGAATTCCGGTCTCCC
# DNA 2: TGGTGGCTACGACGGGATT
# B28: GUAGAAA (DNA:RNA)
# RNA: B13 RNA with C26U, U27A, G29A, U30A, U31A
# DNA 1: CAATCTGAATTCCGGTCTCCC
# DNA 2: TGGTGGCTACGACGGGATT
# B29: AUACAUG (DNA:RNA)
# RNA: B1 RNA with A26U, C27A, A28C, U29A, G30U
# DNA 1: CAATCTGAATTCCGGTCTCCC
# DNA 2: TGGTGGCTACGACGGGATT
# B30: CGCUAAA (DNA:RNA)
# RNA: B2 RNA with G27C, C28U, C29A, C31A
# DNA 1: CAATCTGAATTCCGGTCTCCC
# DNA 2: TGGTGGCTACGACGGGATT
# B31: GACUUAU (DNA:RNA)
# RNA: B1 RNA with A25G, A28U, G30A, G31U
# DNA 1: CAATCTGAATTCCGGTCTCCC
# DNA 2: TGGTGGCTACGACGGGATT
# Target: T1, RBFOX1 RRM RbFoxmut (Fox-RRM*) (Homo sapiens, UniProt Q9NWB1 109-208, R118D;E147R;N151S;E152T)
# T1 sequence: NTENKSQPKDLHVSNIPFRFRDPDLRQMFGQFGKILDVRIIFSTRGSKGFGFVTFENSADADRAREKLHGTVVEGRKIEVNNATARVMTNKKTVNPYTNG
# Experiment: EMSA; HiTS-Eq, 1 nM pool, 10 min; buffer printed only for the single-RNA assays: 10 mM Tris pH 7.5, 150 mM NaCl, 3.4 mM EDTA, 0.001% NP-40, 30 C
# Details: tags: His6 N-terminal (pET28a); label: 5' 32P
# Summary of the method: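 A pool of RNA with 7 randomized nucleotides, 5′-radiolabelled and with DNA-annealed flanks, was equilibrated at 1 nM for 10 min in 50 µL with purified RbFox RRM, wild type or mutant, across increasing protein concentrations. Free RNA was separated by 8% native PAGE, excised, reverse-transcribed, barcoded by PCR and sequenced. Relative association constants were obtained from read-count changes of each RNA species versus the control reaction and normalised to the cognate motif.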
row,Binder,binding signal
1,B1,0.0845 KA relative to UGCAUGU
2,B2,0.0504 KA relative to UGCAUGU
3,B3,0.143 KA relative to UGCAUGU
4,B4,0.218 KA relative to UGCAUGU
5,B5,0.0685 KA relative to UGCAUGU
6,B6,0.176 KA relative to UGCAUGU
7,B7,0.067 KA relative to UGCAUGU
8,B8,0.161 KA relative to UGCAUGU
9,B9,0.109 KA relative to UGCAUGU
10,B10,0.132 KA relative to UGCAUGU
11,B11,0.072 KA relative to UGCAUGU
12,B12,0.0909 KA relative to UGCAUGU
13,B13,0.105 KA relative to UGCAUGU
14,B14,0.0923 KA relative to UGCAUGU
15,B15,0.87 KA relative to UGCAUGU
16,B16,0.142 KA relative to UGCAUGU

row,Binder,binding signal
1,B17,0.0432 KA relative to UGCAUGU
2,B18,0.0957 KA relative to UGCAUGU
3,B19,0.0878 KA relative to UGCAUGU
4,B20,0.133 KA relative to UGCAUGU
5,B21,0.0589 KA relative to UGCAUGU
6,B22,0.0911 KA relative to UGCAUGU
7,B23,0.0688 KA relative to UGCAUGU
8,B24,0.0921 KA relative to UGCAUGU
9,B25,0.125 KA relative to UGCAUGU
10,B26,0.0963 KA relative to UGCAUGU
11,B27,0.111 KA relative to UGCAUGU
12,B28,0.105 KA relative to UGCAUGU
13,B29,0.118 KA relative to UGCAUGU
14,B30,0.0826 KA relative to UGCAUGU
15,B31,0.124 KA relative to UGCAUGU
